# Assay results taken from the supplement of paper PMC8728848.
# The list shows a part of the results.
# Tests used:
# Experiment in all cases: glycan array binding signal (z-score within array); higher = stronger binding
# Settings in all cases: glycan notation: IUPAC condensed, linker removed
# [1] = biological target: Gal(b1-4)GlcNAc(b1-3)Gal(b1-4)GlcNAc(b1-6)[Gal(b1-3)]GalNAc
# Method in brief: (§1)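 Glycan array data were curated from 3228 arrays in the Consortium for Functional Glycomics database and kept only where the protein sequence was available. Glycan names were converted to IUPAC-condensed notation, and columns mapping to the same glycan were averaged. The binding signal is a within-array Z-score, averaged across arrays of the same protein sequence at different concentrations or buffers and across linkers. Negative Z-scores can be read as non-binding.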
# [2] = biological target: Gal(b1-4)GlcNAc(b1-3)Gal(b1-4)[Fuc(a1-3)]GlcNAc(b1-3)Gal(b1-4)[Fuc(a1-3)]GlcNAc
# Method in brief: as §1
# [3] = biological target: Gal(b1-4)GlcNAc(b1-3)GalNAc
# Method in brief: as §1
# [4] = biological target: Gal(b1-4)GlcNAc(b1-3)[Fuc(a1-3)GlcNAc(b1-6)]Gal(b1-4)Glc
# Method in brief: as §1
# [5] = biological target: Gal(b1-4)GlcNAc(b1-3)[Gal(b1-4)GlcNAc(b1-6)]Gal(b1-4)GlcNAc
# Method in brief: as §1
# [6] = biological target: Gal(b1-4)GlcNAc(b1-3)[GlcNAc(b1-6)]Gal(b1-4)GlcNAc
# Method in brief: as §1
# [7] = biological target: Gal(b1-4)GlcNAc(b1-6)Gal(b1-4)GlcNAc
# Method in brief: as §1
# [8] = biological target: Gal(b1-4)GlcNAc(b1-6)GalNAc
# Method in brief: as §1
# [9] = biological target: Gal(b1-4)GlcNAc(b1-6)[Gal(b1-3)]GalNAc
# Method in brief: as §1
# [10] = biological target: Gal(b1-4)GlcNAc(b1-6)[Gal(b1-4)GlcNAc(b1-3)]GalNAc
# Method in brief: as §1
# [11] = biological target: Gal(b1-4)GlcNAc6P
# Method in brief: as §1
# [12] = biological target: Gal(b1-6)Gal
# Method in brief: as §1
# [13] = biological target: Gal3S(b1-3)GalNAc
# Method in brief: as §1
# [14] = biological target: Gal3S(b1-3)GlcNAc
# Method in brief: as §1
# [15] = biological target: Gal3S(b1-3)[Fuc(a1-4)]GlcNAc
# Method in brief: as §1
# [16] = biological target: Gal3S(b1-4)Glc
# Method in brief: as §1
# [17] = biological target: Gal3S(b1-4)Glc6S
# Method in brief: as §1
# [18] = biological target: Gal3S(b1-4)GlcNAc
# Method in brief: as §1
# [19] = biological target: Gal3S(b1-4)[Fuc(a1-3)]Glc6S
# Method in brief: as §1
# [20] = biological target: Gal3S(b1-4)[Fuc(a1-3)]GlcNAc
# Method in brief: as §1
# [21] = biological target: Gal3S(b1-4)[Fuc(a1-3)]GlcNAc6S
# Method in brief: as §1
# [22] = biological target: Gal3S4S(b1-4)GlcNAc
# Method in brief: as §1
# [23] = biological target: Gal3S6S(b1-4)GlcNAc
# Method in brief: as §1
# [24] = biological target: Gal3S6S(b1-4)GlcNAc6S
# Method in brief: as §1
# [25] = biological target: Gal4S(b1-4)GlcNAc
# Method in brief: as §1
# [26] = biological target: Gal4S6S(b1-4)GlcNAc
# Method in brief: as §1
# [27] = biological target: Gal6P(b1-4)GlcNAc
# Method in brief: as §1
# [28] = biological target: Gal6S(b1-3)GlcNAc
# Method in brief: as §1
# [29] = biological target: Gal6S(b1-3)GlcNAc6S
# Method in brief: as §1
# [30] = biological target: Gal6S(b1-4)Glc
# Method in brief: as §1
# [31] = biological target: Gal6S(b1-4)Glc6S
# Method in brief: as §1
# [32] = biological target: Gal6S(b1-4)GlcNAc
# Method in brief: as §1
# [33] = biological target: Gal6S(b1-4)GlcNAc6S
# Method in brief: as §1
# [34] = biological target: GalNAc(a1-3)Gal
# Method in brief: as §1
# [35] = biological target: GalNAc(a1-3)GalNAc
# Method in brief: as §1
# [36] = biological target: GalNAc(a1-3)GalNAc(b1-3)Gal(a1-4)Gal(b1-4)Glc
# Method in brief: as §1
# [37] = biological target: GalNAc(a1-3)GalNAc(b1-3)Gal(a1-4)Gal(b1-4)GlcNAc
# Method in brief: as §1
# [38] = biological target: GalNAc(b1-3)Gal
# Method in brief: as §1
# [39] = biological target: GalNAc(b1-3)Gal(a1-4)Gal(b1-4)GlcNAc
# Method in brief: as §1
# [40] = biological target: GalNAc(b1-3)Gal(a1-4)Gal(b1-4)GlcNAc(b1-3)Gal(b1-4)Glc
# Method in brief: as §1
# [41] = biological target: GalNAc(b1-3)Gal(a1-6)Gal(b1-4)Glc
# Method in brief: as §1
# [42] = biological target: GalNAc(b1-3)GalNAc
# Method in brief: as §1
# [43] = biological target: GalNAc(b1-3)GlcNAc
# Method in brief: as §1
# [44] = biological target: GalNAc(b1-4)Gal(b1-4)Glc
# Method in brief: as §1
# [45] = biological target: GalNAc(b1-4)GlcNAc
# Method in brief: as §1
binder,measurement,setting,value
RBMC1 (Vibrio cholerae) (protein) QQSQRVVTADNLMYLRSGFAIDAIGTTVNNLVGGPVQGTNGGVLRAPIALDQLQSVEVTSGLYNWGGYHIVAIKFTMKDGSSVLLGSTHYASNKKVETYTVPQGKRIKQINVWTGGWLVEGFQFVY,glycan array binding signal (z-score),[1],-0.378
same,glycan array binding signal (z-score),[2],-0.276
same,glycan array binding signal (z-score),[3],-0.34
same,glycan array binding signal (z-score),[4],-0.151
same,glycan array binding signal (z-score),[5],-0.3
same,glycan array binding signal (z-score),[6],-0.267
same,glycan array binding signal (z-score),[7],-0.353
same,glycan array binding signal (z-score),[8],-0.186
same,glycan array binding signal (z-score),[9],0.163
same,glycan array binding signal (z-score),[10],-0.332
same,glycan array binding signal (z-score),[11],-0.119
same,glycan array binding signal (z-score),[12],-0.254
same,glycan array binding signal (z-score),[13],-0.314
same,glycan array binding signal (z-score),[14],-0.367
same,glycan array binding signal (z-score),[15],-0.345
same,glycan array binding signal (z-score),[16],-0.042
same,glycan array binding signal (z-score),[17],-0.118
same,glycan array binding signal (z-score),[18],-0.291
same,glycan array binding signal (z-score),[19],-0.292
same,glycan array binding signal (z-score),[20],-0.188
same,glycan array binding signal (z-score),[21],-0.231
same,glycan array binding signal (z-score),[22],-0.153
same,glycan array binding signal (z-score),[23],-0.273
same,glycan array binding signal (z-score),[24],0.037
same,glycan array binding signal (z-score),[25],-0.435
same,glycan array binding signal (z-score),[26],-0.401
same,glycan array binding signal (z-score),[27],-0.305
same,glycan array binding signal (z-score),[28],-0.271
same,glycan array binding signal (z-score),[29],-0.209
same,glycan array binding signal (z-score),[30],-0.274
same,glycan array binding signal (z-score),[31],-0.245
same,glycan array binding signal (z-score),[32],-0.363
same,glycan array binding signal (z-score),[33],-0.275
same,glycan array binding signal (z-score),[34],-0.427
same,glycan array binding signal (z-score),[35],-0.37
same,glycan array binding signal (z-score),[36],-0.237
same,glycan array binding signal (z-score),[37],-0.064
same,glycan array binding signal (z-score),[38],-0.292
same,glycan array binding signal (z-score),[39],-0.246
same,glycan array binding signal (z-score),[40],-0.343
same,glycan array binding signal (z-score),[41],-0.363
same,glycan array binding signal (z-score),[42],-0.42
same,glycan array binding signal (z-score),[43],-0.368
same,glycan array binding signal (z-score),[44],-0.112
same,glycan array binding signal (z-score),[45],0.162
